The other results are listed elsewhere or left out. Values were computed here from the reads of four pooled replicates and scatter widely.
biological target: T1, Pho4 (S. cerevisiae) (UniProt P07270); test: relative binding free energy (BET-seq); higher = weaker binding; details: reference: library average
T1 sequence: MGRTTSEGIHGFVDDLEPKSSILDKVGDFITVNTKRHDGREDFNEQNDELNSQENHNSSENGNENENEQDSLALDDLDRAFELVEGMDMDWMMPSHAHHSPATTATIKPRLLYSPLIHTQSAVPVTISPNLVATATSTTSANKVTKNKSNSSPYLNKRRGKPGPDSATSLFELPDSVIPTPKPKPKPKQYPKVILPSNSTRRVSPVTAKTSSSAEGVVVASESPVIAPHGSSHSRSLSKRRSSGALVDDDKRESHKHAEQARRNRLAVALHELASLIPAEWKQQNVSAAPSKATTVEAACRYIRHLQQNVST

Sequence | relative binding free energy [kcal/mol]
GGTTACACGTGGAAGT | 0.22
GCTTTCACGTGATTTT | 0.53
TAAAACACGTGGGTGA | 0.03
CGGTTCACGTGTAAGT | 0.29
GATTCCACGTGAGTTT | 0.44
AGCGTCACGTGAGGTC | 0.25
GAGTGCACGTGTACGT | -0.02
TCGTTCACGTGGTGAG | 0.32
TTTTTCACGTGATTTT | 0.31
TCGGGCACGTGGGTTA | -0.17
CGTGCCACGTGGGGGA | -0.18
TTTGGCACGTGCTTGA | -0.1
TGATTCACGTGTGCTG | 0.17
TATCGCACGTGGTGTT | -0.13
GTTAGCACGTGAAAAG | 0.33
ACAATCACGTGGGGTT | -0.11
AGGTTCACGTGGTGAC | 0.2
GGCGGCACGTGCGGAA | 0.03
AAGTTCACGTGTAGTT | 0.46
ACGTGCACGTGAAGTG | 0.03
TATTTCACGTGGTTAT | 0.17
TTAGTCACGTGTATCT | 0.06
CTAGGCACGTGTTTGT | -0.29
TCGTTCACGTGGTAGA | 0.35
TAATGCACGTGCGAGT | -0.06
GGCGGCACGTGTGATG | 0.05

Sequence | relative binding free energy [kcal/mol]
AGGCACACGTGTGTTG | -0.07
CTGTACACGTGTTTTA | 0.11
TGATCCACGTGTTTTA | 0.09
GCCTGCACGTGGTTGT | 0.01
GGGGTCACGTGTTCCG | 0.25
TTGTACACGTGTGCTG | 0.04
GTTTCCACGTGACTGT | 0.43
TCTTGCACGTGGCTTG | 0.02
CTGTTCACGTGCTTTG | 0.31
TGTTGCACGTGCAGCG | 0.02
GAGTTCACGTGAATTT | 0.46
TTAGGCACGTGTCTAT | -0.12
GGTAGCACGTGTTCAG | -0.04
TGGCGCACGTGGACGT | -0.1
GGTACCACGTGGGATG | -0.05
ATGGGCACGTGTAGTT | 0
TGTGACACGTGGCTTG | 0.02
TATGGCACGTGATATC | 0
GTTTACACGTGGGGTG | 0.03
TGTGCCACGTGTTGCA | -0.05
GGGGTCACGTGGGTGA | 0.06
TGATGCACGTGCGCGT | -0.11
GCGTTCACGTGGTGGG | 0.22
CATGCCACGTGTGGGG | -0.23
GCTGTCACGTGGGGGT | 0.03
GGTGCCACGTGGAAGG | 0.03

Sequence | relative binding free energy [kcal/mol]
CAAAGCACGTGTTGGT | 0.09
AGTATCACGTGGCGGT | 0.18
TGGGACACGTGTGCTT | 0.01
GTTTACACGTGGTGGA | 0.08
TTTTACACGTGGCTGA | 0.06
AGGGCCACGTGGGCCG | -0.25
TCTTGCACGTGGTTGA | -0.08
AAGTGCACGTGTGTGA | -0.09
GAGTACACGTGGGTTA | 0
GATTTCACGTGAGGGA | 0.46
CGTGGCACGTGGTGGC | -0.06
ATGCGCACGTGAGTAT | 0.19
AGGATCACGTGTGAAT | 0.29
CGGGGCACGTGGAGGT | 0.03
GGTTACACGTGTTGTC | 0.19
TTGCGCACGTGCGTTT | -0.06
TTGACCACGTGTAGGG | 0.02
GGGGCCACGTGGTGAT | -0.26
GCAGTCACGTGGGAGG | -0.02
ATGTTCACGTGGCCAG | 0.33
TGGGACACGTGGCGTG | -0.13
TGGTTCACGTGATTTT | 0.41
TTTAGCACGTGTATGG | -0.05
CGAGTCACGTGATTGG | 0.01
TGCTGCACGTGATTAG | 0.11
ATACGCACGTGTGTGA | 0.08

Sequence | relative binding free energy [kcal/mol]
TAATTCACGTGATGTT | 0.34
TAGTACACGTGTAGAT | 0.24
AGTTTCACGTGAATGA | 0.44
TTACGCACGTGGATAT | 0.03
TTATTCACGTGGCTAG | 0.15
GAGTGCACGTGTTATG | 0.04
GTTGACACGTGTTATG | 0.12
TGTGACACGTGTTGGT | 0.07
TTGGACACGTGCTTAT | -0.02
GTAGTCACGTGGGACT | -0.02
GTGTGCACGTGCTGAT | 0.04
CTTGTCACGTGGATGG | 0
GGGTGCACGTGTTTGC | 0.05
GGTTTCACGTGGATGA | 0.32
TGCGTCACGTGCTGGT | -0.08
ATTGACACGTGTGGGG | 0.07
ATTGACACGTGAGAGG | 0.16
GGTTACACGTGGTGTG | 0.2
GGTAACACGTGGGTTA | -0.11
AGTGGCACGTGCAAAG | -0.06
TATTTCACGTGATTTG | 0.45
GGTGACACGTGCGGAT | 0
CTGTTCACGTGTGTCT | 0.11
TTCGTCACGTGTGGGT | 0.03
TAGTTCACGTGGGTTT | 0.2
GAGGACACGTGTTTAT | 0.12

Sequence | relative binding free energy [kcal/mol]
AGGAACACGTGTATTT | 0.03
AAGAGCACGTGCGTGG | -0.19
TATTTCACGTGATTAA | 0.42
GTAGTCACGTGTCGGC | 0.25
AGTGCCACGTGAGCGT | 0.01
TGAGGCACGTGTAATG | 0.05
TGTTGCACGTGAAGTC | 0.32
CAGGGCACGTGTAGGG | -0.13
TCAATCACGTGTAGTT | 0.12
TGAAACACGTGTAGGG | 0.04
GAAAACACGTGGTGTT | 0.02
TTGTTCACGTGACGAT | 0.36
GATCACACGTGGGTGG | -0.09
TGTAGCACGTGCGTTA | -0.08
TCGTTCACGTGCTGTA | 0.24
CGATTCACGTGCGGTG | 0.21
CTCATCACGTGGGGGG | -0.08
TGAATCACGTGAAGTA | 0.3
GAGGCCACGTGTGAGG | 0.15
TATTACACGTGTAAAT | 0.09
TCAATCACGTGGTTGG | 0.07
ATGCTCACGTGAGGGC | 0.38
GGATGCACGTGTTATG | -0.05
GGGGGCACGTGTGATC | -0.07
GGGTTCACGTGGGAGG | 0.37
GAGGGCACGTGGCCGT | -0.25

Sequence | relative binding free energy [kcal/mol]
AATGACACGTGAATTT | 0.39
GCAAGCACGTGGCGGG | -0.02
CGTTGCACGTGAGATT | 0.26
AGATTCACGTGAAGTA | 0.5
ATTTACACGTGGGCGG | -0.06
ATAGACACGTGTAGTT | 0.15
TATTTCACGTGAGGCT | 0.24
CTCGTCACGTGGGTTT | -0.12
CGTTTCACGTGAAAGT | 0.4
CTGTTCACGTGTACGT | 0.22
GAGTGCACGTGGTCTG | -0.13
TATATCACGTGGTTCG | 0.14
TAAACCACGTGGGGGG | -0.11
TTTGGCACGTGTTGCA | -0.07
TTTATCACGTGGAACT | 0.18
TGAGTCACGTGGAGCG | 0.21
TTGTACACGTGCTTCG | 0.08
GCGGCCACGTGTGGGG | 0.06
GGCGGCACGTGTCGAG | 0.03
GTGAACACGTGCGTAG | 0.08
TTGTACACGTGTGCGT | 0.11
ACTGTCACGTGGTAGT | -0.08
AAGAACACGTGGGTCT | 0.13
CTTATCACGTGTATTG | 0.14
GTTTCCACGTGGGTGT | 0
AGGAACACGTGGATTG | 0.09

Sequence | relative binding free energy [kcal/mol]
GCTTGCACGTGTTATT | 0.1
TTGATCACGTGCGGCA | 0.18
GGGGTCACGTGGGACA | 0
GAGCTCACGTGAGGTG | 0.36
GTACTCACGTGTTGTA | 0.31
TGAAGCACGTGGAATT | 0.17
AGAGACACGTGTAAGT | 0.23
GTTGGCACGTGGTGGC | -0.15
TCTTACACGTGTGGGA | 0.01
TGTTCCACGTGGGATG | -0.09
CAGCGCACGTGGGGTT | -0.26
ATGGGCACGTGCCGTT | -0.27
AAGGGCACGTGTAAAG | -0.03
GGGGCCACGTGGTCTT | 0
TTGATCACGTGTCGTA | 0.11
AGGGGCACGTGACTTT | 0.02
AGGTTCACGTGTTGCG | 0.25
AGGTTCACGTGCGTTG | 0.28
TAGTGCACGTGTGGTG | 0.08
GTTAACACGTGTAGAA | 0.14
AGGTACACGTGCTAGG | -0.06
TATCGCACGTGGGGAC | -0.02
TTATTCACGTGGTTCG | 0.22
TTAGGCACGTGAATAT | 0.03
AGGCTCACGTGGTTTT | 0.2
TGTAACACGTGGCTGG | -0.03

Sequence | relative binding free energy [kcal/mol]
AGGGACACGTGAAGAG | 0.2
AGAATCACGTGCTGTT | 0.13
GGTGACACGTGCTGGG | -0.1
GCATTCACGTGGGGGT | 0.18
GTAGGCACGTGGTAAA | 0.05
AGATTCACGTGGTGTC | 0.11
AATTACACGTGATTGG | 0.08
AGCTTCACGTGGATGT | 0.25
TCATGCACGTGCTTGT | -0.04
AGCGCCACGTGGGTGG | -0.26
CGTGTCACGTGGCAGG | -0.08
GTTCGCACGTGTTTGC | 0.05
AGCGGCACGTGTGGAA | -0.07
TGTAACACGTGGTTGT | -0.12
GTGGCCACGTGTGAGA | 0.04
GGGTTCACGTGTTCCG | 0.36
GGCAGCACGTGTAGGG | -0.01
GTAGTCACGTGGGCTT | -0.05
CTGGTCACGTGAAAGT | 0.4
TTGAACACGTGGGAGG | -0.01
AGGTGCACGTGATTTA | 0.02
TTGGACACGTGGGGCT | -0.21
TGATTCACGTGGTATT | 0.2
AGTTACACGTGGTACG | 0.04
GGTGGCACGTGGACGG | -0.01
TTAGACACGTGTAGCT | 0

Sequence | relative binding free energy [kcal/mol]
ATCGGCACGTGGCTGG | -0.22
AAGTTCACGTGGTACT | 0.34
ATATTCACGTGGCTTA | 0.23
TCCATCACGTGTGGTT | 0.24
TGGTGCACGTGGTGCC | -0.07
TTGAGCACGTGGGCAG | -0.26
TGTAGCACGTGAGTAT | 0.19
TGAAACACGTGGTTAG | 0.01
TCGTACACGTGTGTGG | 0.08
TCTAGCACGTGTAGGT | 0
AGTAGCACGTGTATTA | 0
TGGTGCACGTGGCGTT | -0.21
GTGGACACGTGATTGT | 0.22
CTCTTCACGTGGGTTT | 0.18
AATTACACGTGGAGTG | 0.15
GGTCACACGTGGGGAT | -0.02
CTTGTCACGTGTTAAT | 0.18
TTTTACACGTGAGGCA | 0.34
ACTGACACGTGATTGG | 0.19
GGTGCCACGTGTTGCT | -0.07
TCGAACACGTGCTGGG | 0.2
TTAATCACGTGGAAGA | 0.22
